Measurements reported in publication PMC4336329 (PLoS ONE, 2015).
The campaign covered roughly 310,000 compounds. About 2,200 (0.71%) showed an effect of 50% or more. The effect is printed as a negative number. This is one part of the list.

biological target: human ether-à-go-go-related gene (hERG) potassium channel (human, UniProt Q12809); test: primary screen, population patch clamp on CHO cells stably expressing hERG
Sequence (Q12809 whole entry, looked up): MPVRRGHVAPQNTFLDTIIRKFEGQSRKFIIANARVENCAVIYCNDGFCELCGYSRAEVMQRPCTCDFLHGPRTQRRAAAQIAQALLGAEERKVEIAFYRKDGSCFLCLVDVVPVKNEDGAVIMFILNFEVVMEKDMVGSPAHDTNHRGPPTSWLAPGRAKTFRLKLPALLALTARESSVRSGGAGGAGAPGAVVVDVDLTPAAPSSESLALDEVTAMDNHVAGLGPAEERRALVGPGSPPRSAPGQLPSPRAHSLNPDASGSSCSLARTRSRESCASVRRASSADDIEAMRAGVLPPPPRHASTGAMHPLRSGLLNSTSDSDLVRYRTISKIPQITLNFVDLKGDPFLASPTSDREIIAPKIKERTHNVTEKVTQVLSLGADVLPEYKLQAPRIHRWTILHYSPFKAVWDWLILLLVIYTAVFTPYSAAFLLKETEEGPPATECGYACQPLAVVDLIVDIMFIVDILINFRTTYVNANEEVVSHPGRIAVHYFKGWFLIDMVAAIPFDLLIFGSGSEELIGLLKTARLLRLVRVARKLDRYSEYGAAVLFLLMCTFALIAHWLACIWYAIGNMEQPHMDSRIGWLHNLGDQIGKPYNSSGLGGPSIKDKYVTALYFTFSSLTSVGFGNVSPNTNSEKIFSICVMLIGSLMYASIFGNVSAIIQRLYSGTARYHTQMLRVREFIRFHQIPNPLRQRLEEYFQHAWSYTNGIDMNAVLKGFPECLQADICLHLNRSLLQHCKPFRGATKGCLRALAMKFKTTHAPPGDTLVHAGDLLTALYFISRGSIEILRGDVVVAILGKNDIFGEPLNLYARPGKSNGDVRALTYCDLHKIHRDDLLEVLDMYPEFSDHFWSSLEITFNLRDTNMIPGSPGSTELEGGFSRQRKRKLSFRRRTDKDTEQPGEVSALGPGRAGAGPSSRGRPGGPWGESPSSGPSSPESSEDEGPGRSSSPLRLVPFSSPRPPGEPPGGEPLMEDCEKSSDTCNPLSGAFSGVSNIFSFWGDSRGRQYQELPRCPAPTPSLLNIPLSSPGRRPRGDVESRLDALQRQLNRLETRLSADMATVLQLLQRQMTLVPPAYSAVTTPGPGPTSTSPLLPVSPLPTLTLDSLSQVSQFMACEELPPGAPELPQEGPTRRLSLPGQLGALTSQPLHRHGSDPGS

Compared with `O=C(NC(=O)c1ccc(Cl)c(Cl)c1)OC1CCS(=O)(=O)C1` (stereo not shown), `Cc1cc(NC(=O)c2ccc(NC(=O)C3CCCO3)cc2)ccc1Br` (stereo not shown) is higher in “hERG current change (%, negative = inhibition) at 1uM” value: 3.79% for the first, 12.1% for the second.

Compared with `COC(=O)C1CCCN1S(=O)(=O)c1ccc([N+](=O)[O-])cc1` (stereo not shown), `COc1ccc(NC(=O)C2CCCCN2S(=O)(=O)c2ccc(F)cc2)cc1` (stereo not shown) is lower in “hERG current change (%, negative = inhibition) at 1uM” value: 10.7% for the first, 3.66% for the second.

Going from `O=C(c1ccco1)N1CCN(Cc2nnc(-c3ccccc3F)o2)CC1` to `O=C(O)c1cc(NN=C2CCN(Cc3ccccc3)CC2)ccc1Cl`, the “hERG current change (%, negative = inhibition) at 1uM” value falls from 12.1% to 10.1%.

First: CCCC(=O)C1=C(SCC)CC(C)(C)C(C(=O)OC)C1=O (stereo not shown)
Second: COC(=O)N1C(=O)[C@@](c2ccc(OC)cc2)(C(C)C)N1C(=O)OC
The “hERG current change (%, negative = inhibition) at 1uM” value of the first is lower: -6.26% for the first, 16.3% for the second.

First: CCC(=O)c1ccc(N2CCC(C)CC2)c(F)c1
Second: O=C(CN1CCCCCCC1)N/N=C/c1ccc(F)cc1F
The “hERG current change (%, negative = inhibition) at 1uM” value of the first is higher: 12.9% for the first, -17.6% for the second.

Going from `O=C1C2C3C=CC(C4CC34)C2C(=O)N1/N=C/c1ccc(-c2ccccc2[N+](=O)[O-])o1` (stereo not shown) to `CCOc1ccc(OCCN2C(=O)NC(Cc3c[nH]c4ccccc34)C2=O)cc1` (stereo not shown), the “hERG current change (%, negative = inhibition) at 1uM” value rises from -8.71% to 13.1%.

Going from `CCc1noc(C)c1C(=O)N1CCCSC1=Nc1ccccc1OC` to `COC(=O)c1ccccc1N=Nc1c(C)n[nH]c1C`, the “hERG current change (%, negative = inhibition) at 1uM” value rises from 5.25% to 7.54%.

First: Cc1cc(/C=C2/C(=O)NN(c3ccccc3)C2=O)c(C)n1-c1cccc(O)c1
Second: Cc1ccc2c(c1)c(=O)c(Br)c(C)n2Cc1ccccc1
The “hERG current change (%, negative = inhibition) at 1uM” value of the first is higher: 11.9% for the first, 7.08% for the second.

Compared with `COCc1cc(SC2CCCCC2)nc(C)n1`, `Cc1ccc(C)c(N(CC(=O)NC2CCCC2)C(=O)CCC(=O)Nc2nccs2)c1` is lower in “hERG current change (%, negative = inhibition) at 1uM” value: 9.18% for the first, 1.21% for the second.

Going from `COc1ccc(NC(=O)c2cn(CCC#N)nc2-c2cccs2)cc1` to `COc1ccc(CNC(=O)CSc2nnc(-c3ccc(NC(C)=O)cc3)n2C)cc1`, the “hERG current change (%, negative = inhibition) at 1uM” value rises from 0.166% to 1.67%.

First: CCOC(=O)c1cc([N+](=O)[O-])sc1N
Second: CCOc1ccc(NC(C)=O)cc1N
The “hERG current change (%, negative = inhibition) at 1uM” value of the first is higher: 9.33% for the first, 7.3% for the second.

Going from `Cc1nn(C)cc1C1Nc2ccccc2C(=O)N1O` (stereo not shown) to `Cc1cc(C)cc(NC(=O)CN2C(=O)c3ccccc3C2=O)c1`, the “hERG current change (%, negative = inhibition) at 1uM” value falls from 16.7% to 0.538%.

First: CCC(C)c1ccc(NC(=O)CSc2nncn2N)cc1 (stereo not shown)
Second: CCC(C)Sc1nc2c(c(=O)[nH]c(=O)n2C)n1Cc1ccccc1Cl (stereo not shown)
The “hERG current change (%, negative = inhibition) at 1uM” value of the first is lower: -25.7% for the first, 14.3% for the second.

Going from `Cc1cccc(NC(=O)CCN2C(=O)C3C4CCC(C4)C3C2=O)c1C` (stereo not shown) to `CCc1nnc(NC(=O)CCN2C(=O)CCC2=O)s1`, the “hERG current change (%, negative = inhibition) at 1uM” value rises from 1.65% to 8.52%.

First: CC(C)(C)c1ccccc1NC(=S)NC1CCCC1
Second: CC(NCc1ccc2c(c1)OCO2)C(=O)NC1CCCc2ccccc21.O=C(O)C(=O)O (stereo not shown)
The “hERG current change (%, negative = inhibition) at 1uM” value of the first is higher: 0.305% for the first, -10.7% for the second.

Going from `Cc1cccc2nc(-c3ccco3)c(Nc3ccc4c(c3)OCCO4)n12` to `CC(=O)Nc1ccc(OCc2ccc3c(c2)OCO3)cc1`, the “hERG current change (%, negative = inhibition) at 1uM” value falls from 11.4% to 5.52%.

First: O=C(Nc1ccccc1)Nc1n[nH]c2nnc(-c3ccccc3)c(-c3ccccc3)c12
Second: O=C(Nc1cc(Sc2nc3ccccc3s2)cc([N+](=O)[O-])c1)c1ccccc1
The “hERG current change (%, negative = inhibition) at 1uM” value of the first is lower: 3.62% for the first, 12.4% for the second.

Compared with `CCOC(=O)N1CCN(c2nc3c(C)cccn3c(=O)c2C=O)CC1`, `CCN1CCN(C(=O)C(C)Oc2ccc(S(=O)(=O)N3CCCC3)cc2C(N)=O)CC1` (stereo not shown) is lower in “hERG current change (%, negative = inhibition) at 1uM” value: 5.71% for the first, 1.4% for the second.

First: COC(=O)C(=Cc1ccc(OCc2ccc([N+](=O)[O-])cc2)c(OC)c1)C(=O)OC
Second: C=CCNC(=O)c1ccccc1NC(=O)COc1ccc(OC)cc1
The “hERG current change (%, negative = inhibition) at 1uM” value of the first is lower: 4.47% for the first, 11.4% for the second.

Compared with `COc1ccc(C2(C(=O)Nc3ccc(C(=O)O)cc3)CCOCC2)cc1`, `O=C(Nc1ccccc1C(=O)NCCCN1CCOCC1)c1ccc(F)cc1F` is higher in “hERG current change (%, negative = inhibition) at 1uM” value: 8.06% for the first, 11.8% for the second.

Going from `CC(Sc1nc2c(c(=O)[nH]1)CCCC2)C(=O)Nc1ccc(S(N)(=O)=O)cc1` (stereo not shown) to `CSc1nc2ccc(NC(=O)c3ccco3)cc2s1`, the “hERG current change (%, negative = inhibition) at 1uM” value falls from 15.8% to 7.01%.

First: Cn1cc(CN2CCCC(C(=O)c3cccs3)C2)c(-c2cccc(Cl)c2)n1 (stereo not shown)
Second: Cc1cc(C)nc(NC(=O)/C=C/c2cccs2)c1
The “hERG current change (%, negative = inhibition) at 1uM” value of the first is lower: 2.71% for the first, 3.4% for the second.

Going from `Cc1cc2nc3c(nc2cc1C)C1(C(=O)N(C)C)CCC3(C)C1(C)C` (stereo not shown) to `Cc1cc(C)nc(NC(=O)c2cc3ccccc3o2)n1`, the “hERG current change (%, negative = inhibition) at 1uM” value rises from 3.85% to 11%.

First: O=C(O)c1cccc2c1C(=O)c1ccc(-c3ccc(F)cc3F)cc1S2(=O)=O
Second: CC(=O)N(Cc1cc(=O)[nH]c2ccccc12)c1ccccc1C
The “hERG current change (%, negative = inhibition) at 1uM” value of the first is lower: 10.2% for the first, 12.1% for the second.

First: C[C@@H](C(=O)CC(=O)OC(C)(C)C)[C@@H](O)c1c(F)cccc1Cl
Second: CCCn1c(=NC(=O)c2c(-c3c(F)cccc3Cl)noc2C)c(C(=O)OCC)cc2c(=O)n3ccccc3nc21
The “hERG current change (%, negative = inhibition) at 1uM” value of the first is higher: 10.1% for the first, 4.2% for the second.

Going from `COc1ccc(Cc2nc3ccc(C(=O)NCCc4ccccn4)cc3o2)cc1OC` to `COc1ccccc1NC(=O)Nc1nc(CC(=O)NCc2c(F)cccc2F)cs1`, the “hERG current change (%, negative = inhibition) at 1uM” value rises from 3.48% to 13.1%.

Compared with `On1nnc2c3ccccc3c3ccccc3c21`, `CCN(CC)CCCNC(=O)C1c2ccccc2C(=O)N(C)C1c1ccc(OC)cc1` (stereo not shown) is lower in “hERG current change (%, negative = inhibition) at 1uM” value: 16.8% for the first, 8.24% for the second.

Going from `Cc1ccnc2nc(NC(=O)c3ccco3)nn12` to `CCN(CC)CCNC(=O)C1CCC(=O)N1CCc1ccccc1` (stereo not shown), the “hERG current change (%, negative = inhibition) at 1uM” value falls from 19.3% to 7.89%.

Compared with `COc1cc(C2=NOC(C(=O)N3CCOCC3)C2)cc(OC)c1OC` (stereo not shown), `Nc1ccccc1C(=O)NCCCN1CCOCC1` is lower in “hERG current change (%, negative = inhibition) at 1uM” value: 5.41% for the first, 4.35% for the second.
